Reference: publication PMC12820563, “FoxP3 forms a head-to-head dimer in vivo and stabilizes its multimerization on adjacent microsatellites”
The other results are listed elsewhere or left out.

biological target: T1, MBP-FoxP1dN (Mus musculus, UniProt P58462 326-579); assay: PD-seq (MBP pull-down with sequencing); 20 mM Tris-HCl pH 7.5, 100 mM NaCl, 1.5 mM MgCl2, 0.4 uM protein, 0.1 uM dsDNA library, 30 min, room temperature, amylose pull-down; high values mean tight binding; conditions: protein: recombinant; tags: His6-MBP; chain copies: 2; dsDNA, one strand shown
T1 sequence: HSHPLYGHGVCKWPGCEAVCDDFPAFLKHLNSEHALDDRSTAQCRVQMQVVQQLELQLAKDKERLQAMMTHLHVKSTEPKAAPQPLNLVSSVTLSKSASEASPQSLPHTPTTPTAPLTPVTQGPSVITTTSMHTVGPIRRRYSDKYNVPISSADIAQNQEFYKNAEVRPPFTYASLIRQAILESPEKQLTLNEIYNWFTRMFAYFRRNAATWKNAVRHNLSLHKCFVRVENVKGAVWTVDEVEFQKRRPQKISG
Procedure, shortened: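 Binding is given as reads-per-million enrichment, pull-down over input, with replicates pooled. The bait was an N-terminus-lacking mouse FoxP3 or FoxP1 fragment with a His6-MBP tag, expressed in E. coli and used at 0.4 µM with 0.1 µM Klenow-filled degenerate double-stranded DNA library for 30 min at room temperature in Tris pH 7.5 buffer with NaCl and MgCl2. Amylose resin pull-down with three washes was followed by proteinase K release, PCR barcoding and Illumina sequencing.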

| Sequence | binding signal |
| --- | --- |
| GATGATTGTTCTCCCAGCTGATGAATTAATGTATTCGAGTAAACAAATTTTCCTAATCTTTCTGTTCAAGCGCCATCTAC | 1.47 RPM ratio (pull-down/input) |
| GATGATTGTTCTCCCAGCTGATGAATTCTGGCACTCGAGTAAACAAATTTTCCTAATCTTTCTGTTCAAGCGCCATCTAC | 0.805 RPM ratio (pull-down/input) |
| GATGATTGTTCTCCCAGCTGATGAATTTGTTAACTCGAGTAAACAAATTTTCCTAATCTTTCTGTTCAAGCGCCATCTAC | 1.28 RPM ratio (pull-down/input) |
| GATGATTGTTCTCCCAGCTGATGAATTCACGTATTCGAGTAAACAAATTTTCCTAATCTTTCTGTTCAAGCGCCATCTAC | 1.09 RPM ratio (pull-down/input) |
| GATGATTGTTCTCCCAGCTGATGAATTCACCTGGTCGAGTAAACAAATTTTCCTAATCTTTCTGTTCAAGCGCCATCTAC | 0.796 RPM ratio (pull-down/input) |
| GATGATTGTTCTCCCAGCTGATGAATTTCAGGGGTCGAGTAAACAAATTTTCCTAATCTTTCTGTTCAAGCGCCATCTAC | 0.746 RPM ratio (pull-down/input) |
| GATGATTGTTCTCCCAGCTGATGAATTAGCGCGGTCGAGTAAACAAATTTTCCTAATCTTTCTGTTCAAGCGCCATCTAC | 0.806 RPM ratio (pull-down/input) |
| GATGATTGTTCTCCCAGCTGATGAATTTAAAGGATCGAGTAAACAAATTTTCCTAATCTTTCTGTTCAAGCGCCATCTAC | 0.866 RPM ratio (pull-down/input) |
| GATGATTGTTCTCCCAGCTGATGAATTATTAATGTCGAGTAAACAAATTTTCCTAATCTTTCTGTTCAAGCGCCATCTAC | 1.35 RPM ratio (pull-down/input) |
| GATGATTGTTCTCCCAGCTGATGAATTTGGCAATTCGAGTAAACAAATTTTCCTAATCTTTCTGTTCAAGCGCCATCTAC | 0.931 RPM ratio (pull-down/input) |
| GATGATTGTTCTCCCAGCTGATGAATTTAGGGCATCGAGTAAACAAATTTTCCTAATCTTTCTGTTCAAGCGCCATCTAC | 1.04 RPM ratio (pull-down/input) |
| GATGATTGTTCTCCCAGCTGATGAATTCGTTGAATCGAGTAAACAAATTTTCCTAATCTTTCTGTTCAAGCGCCATCTAC | 0.916 RPM ratio (pull-down/input) |
| GATGATTGTTCTCCCAGCTGATGAATTCGAACAATCGAGTAAACAAATTTTCCTAATCTTTCTGTTCAAGCGCCATCTAC | 1.12 RPM ratio (pull-down/input) |
| GATGATTGTTCTCCCAGCTGATGAATTTCGAATCTCGAGTAAACAAATTTTCCTAATCTTTCTGTTCAAGCGCCATCTAC | 0.83 RPM ratio (pull-down/input) |
| GATGATTGTTCTCCCAGCTGATGAATTCCTAGAGTCGAGTAAACAAATTTTCCTAATCTTTCTGTTCAAGCGCCATCTAC | 0.82 RPM ratio (pull-down/input) |
| GATGATTGTTCTCCCAGCTGATGAATTCAAGAGCTCGAGTAAACAAATTTTCCTAATCTTTCTGTTCAAGCGCCATCTAC | 0.778 RPM ratio (pull-down/input) |

| Sequence | binding signal |
| --- | --- |
| GATGATTGTTCTCCCAGCTGATGAATTATAGTATTCGAGTAAACAAATTTTCCTAATCTTTCTGTTCAAGCGCCATCTAC | 1.22 RPM ratio (pull-down/input) |
| GATGATTGTTCTCCCAGCTGATGAATTTGGCAGTTCGAGTAAACAAATTTTCCTAATCTTTCTGTTCAAGCGCCATCTAC | 0.918 RPM ratio (pull-down/input) |
| GATGATTGTTCTCCCAGCTGATGAATTCCCAGGTTCGAGTAAACAAATTTTCCTAATCTTTCTGTTCAAGCGCCATCTAC | 0.73 RPM ratio (pull-down/input) |
| GATGATTGTTCTCCCAGCTGATGAATTAACGCGCTCGAGTAAACAAATTTTCCTAATCTTTCTGTTCAAGCGCCATCTAC | 0.91 RPM ratio (pull-down/input) |
| GATGATTGTTCTCCCAGCTGATGAATTCCGATAGTCGAGTAAACAAATTTTCCTAATCTTTCTGTTCAAGCGCCATCTAC | 0.844 RPM ratio (pull-down/input) |
| GATGATTGTTCTCCCAGCTGATGAATTAGTAGTCTCGAGTAAACAAATTTTCCTAATCTTTCTGTTCAAGCGCCATCTAC | 0.952 RPM ratio (pull-down/input) |
| GATGATTGTTCTCCCAGCTGATGAATTGGCGTCATCGAGTAAACAAATTTTCCTAATCTTTCTGTTCAAGCGCCATCTAC | 1.05 RPM ratio (pull-down/input) |
| GATGATTGTTCTCCCAGCTGATGAATTCGCTCCTTCGAGTAAACAAATTTTCCTAATCTTTCTGTTCAAGCGCCATCTAC | 0.795 RPM ratio (pull-down/input) |
| GATGATTGTTCTCCCAGCTGATGAATTAAGTCTGTCGAGTAAACAAATTTTCCTAATCTTTCTGTTCAAGCGCCATCTAC | 0.78 RPM ratio (pull-down/input) |
| GATGATTGTTCTCCCAGCTGATGAATTGTGCGTGTCGAGTAAACAAATTTTCCTAATCTTTCTGTTCAAGCGCCATCTAC | 1.08 RPM ratio (pull-down/input) |
| GATGATTGTTCTCCCAGCTGATGAATTGAACTAGTCGAGTAAACAAATTTTCCTAATCTTTCTGTTCAAGCGCCATCTAC | 0.755 RPM ratio (pull-down/input) |
| GATGATTGTTCTCCCAGCTGATGAATTAGCAAGCTCGAGTAAACAAATTTTCCTAATCTTTCTGTTCAAGCGCCATCTAC | 0.877 RPM ratio (pull-down/input) |
| GATGATTGTTCTCCCAGCTGATGAATTATTGAAGTCGAGTAAACAAATTTTCCTAATCTTTCTGTTCAAGCGCCATCTAC | 0.999 RPM ratio (pull-down/input) |
| GATGATTGTTCTCCCAGCTGATGAATTGGTTCTCTCGAGTAAACAAATTTTCCTAATCTTTCTGTTCAAGCGCCATCTAC | 0.911 RPM ratio (pull-down/input) |
| GATGATTGTTCTCCCAGCTGATGAATTCTTGGTGTCGAGTAAACAAATTTTCCTAATCTTTCTGTTCAAGCGCCATCTAC | 0.919 RPM ratio (pull-down/input) |
